Laboratory results reported in ChEMBL document CHEMBL4888484, “Replenishing the malaria drug discovery pipeline: Screening and hit evaluation of the MMV Hit Generation Library 1 (HGL1) against asexual blood stage Plasmodium falciparum ,using a nano luciferase reporter read-out” (2022).
Among all 150,000 compounds or so, about 540 (0.36%) showed an effect of 50% or more. The list shows a part of the results.

system: Plasmodium falciparum; test: Primary screen in NF54 nanoGlo assay, in single point, at 2uM, 72h; a lower Z score goes with more inhibition; format: functional, Erythrocyte; conditions: timepoint 72 hour

Row | SMILES | % Inhibition | Z score
1 | COc1ccc(OCc2cc(C(=O)NC[C@H]3CCOC3)n[nH]2)c(Cl)c1 | -5% | 0.96
2 | Clc1ccccc1CNc1nn2cnnc2c2ccccc12 | -3% | 0.36
3 | CCOC(=O)c1nc(NCCN(Cc2ccccc2)C(C)C)c2c(C)noc2n1 | 8% | -1.58
4 | Cc1csc(NC(=O)CCOCC(C)C)n1 | -3% | 0.48
5 | Cc1cccc(=O)n1CCCNC(=O)c1nc(C(C)C)cs1 | -13% | 2.44
6 | O=S(=O)(C1COC1)N1CCN(c2cc(C3CC3)n[nH]2)CC1 | -4% | 0.67
7 | Cc1cc(Nc2ccc(C)c(F)c2)n2nc(-c3ccco3)nc2n1 | -2% | 0.38
8 | CCc1cc(C(=O)N2CCOCC2)c2c(C3CC3)nn(-c3ccccc3F)c2n1 | 27% | -3.7
9 | Cc1nc([C@H](C)NC(=O)c2cc(Cn3cnc4ccccc43)[nH]n2)n[nH]1 | -2% | 0.28
10 | CCc1nocc1CN(C)S(=O)(=O)c1cc(Cl)c(C)c(C(=O)O)c1 | 11% | -1.68
11 | O=C(Cn1nc2c3ccc(F)cc3ncn2c1=O)Nc1ccc2c(c1)OCO2 | -5% | 0.85
12 | COC[C@H](C)n1c(CCCC(=O)N2CCc3n[nH]cc3C2)nc2cccnc21 | -4% | 0.68
13 | Cc1noc(C)c1CN1CC2(CCCCC2)C[C@@H]1COc1ccncc1 | -13% | 2.21
14 | Cc1nccn1-c1ccccc1Cn1cc([C@H]2CCOC2)nn1 | -16% | 1.76
15 | CCc1nn2c(c1-c1ccc(C)cc1)NC(=O)[C@@H]2CC(=O)O | 32% | -3.64
16 | CCN(CC)c1ccc(NC(=O)CCc2nnc3ccc(N4CCCCC4)nn23)c(C)c1 | 6% | -1
17 | CCC(C)(C)NC(=O)Cn1c(=O)c2nnc(C)n2c2ncccc21 | -6% | 0.77
18 | O=C(NCc1nc2c(F)c(F)ccc2[nH]1)OCC1CC1 | -3% | 0.43
19 | CC[C@H]1C(=O)NCCCN1C(=O)c1cc(C)nc2cc(C)nn12 | -17% | 2.38
20 | O=C1CCC(=O)N1C1CN(S(=O)(=O)C2CCCCC2)C1 | -3% | 0.51
21 | O=C(Nc1ncc(C(O)(C(F)(F)F)C(F)(F)F)s1)c1ccccc1Cl | -1% | 0.19

Row | SMILES | % Inhibition | Z score
22 | COc1cccc([C@H]2CC(=O)Nc3n[nH]cc32)c1OCCc1ccccc1 | -1% | 0.1
23 | C[C@H](NCc1cc2ccccc2c(=O)[nH]1)c1nc(C2CCCC2)no1 | 28% | -3.16
24 | CC(=O)N1CCC(NC(=O)C(O)c2cc(Cl)cc(Cl)c2)C1 (centres undefined) | -7% | 1.09
25 | CCc1ccc(CS(=O)(=O)NC(=O)C2(COC)CCC2)cc1 | -15% | 1.68
26 | CC(C)c1cccc2c1CCN(CC(=O)N1CCC(C(=O)N3CCCC3)CC1)C2 | -12% | 1.18
27 | COC[C@@H]1[C@H](NC(=O)c2ccccc2-c2ccccc2)[C@H]2CCO[C@H]21 | -22% | 2.23
28 | C[C@H]1CCCCN1S(=O)(=O)c1ccc2c(cnc(=O)n2CC(=O)Nc2ccccc2)c1 | 2% | -0.32
29 | NC(=O)c1c(NCC(=O)NCc2ccc(F)cc2)sc2c1CCCC2 | -33% | 3.32
30 | O=C(NC(c1nnn(CC2CCCO2)n1)C1CC1)c1ccccc1 (centres undefined) | -12% | 2.19
31 | O=C(c1cccc(F)c1)N1CCN(CC2CC3C=CC2C3)CC1 (centres undefined) | -7% | 0.97
32 | FC(F)(F)c1ccc(N2CCC(n3ccnn3)CC2)nn1 | 0% | -0.04
33 | Cc1ccc(C(=O)NCc2ccc(F)c(Cn3ccnc3)c2)c(=O)[nH]1 | -1% | 0.1
34 | CC(C)C(=O)N1CCC([C@@H]2CN(Cc3ccsc3)C[C@H]2CO)CC1 | 0% | 0.04
35 | Cc1cc(Cl)ccc1-n1ncc2c(N3CCCC3)ncnc21 | -8% | 0.92
36 | Cc1nn(C)cc1-c1csc(CC2CC2)n1 | -3% | 0.3
37 | CCC(CC)C(=O)N(CC)c1ccccc1 | -13% | 1.49
38 | CC1CC2(C)Oc3ccccc3C3OCC1(COC(=O)Nc1ccccc1)[C@@H](C)C32 (some centres undefined) | -14% | 1.84
39 | O=C1C2C3C=CC([C@@H]2C(=O)N1Cc1ccccc1)C31CC1 (some centres undefined) | -6% | 0.81
40 | O=C(CCc1cncnc1)NC[C@H](N1CCOCC1)C(F)(F)F | -7% | 1.1
41 | Cc1c(S(=O)(=O)N2CCN(CC(F)(F)F)C[C@H](C)C2)cnn1C | 6% | -0.85
42 | COc1ccccc1[C@H](CNC(=O)c1cccc(S(=O)(=O)N2CCCc3ccccc32)c1)N(C)C | 6% | -1.18
